Test results as given in the supplement of paper PMC3334620.
In all, about 33,000 sequences were measured (“E-score (-0.5 to 0.5)”: median about -0.035, highest 2% from about 0.35 on). Some of the results follow.

Molecular target: T1, Pdr3 (UniProt P33200)
T1 sequence: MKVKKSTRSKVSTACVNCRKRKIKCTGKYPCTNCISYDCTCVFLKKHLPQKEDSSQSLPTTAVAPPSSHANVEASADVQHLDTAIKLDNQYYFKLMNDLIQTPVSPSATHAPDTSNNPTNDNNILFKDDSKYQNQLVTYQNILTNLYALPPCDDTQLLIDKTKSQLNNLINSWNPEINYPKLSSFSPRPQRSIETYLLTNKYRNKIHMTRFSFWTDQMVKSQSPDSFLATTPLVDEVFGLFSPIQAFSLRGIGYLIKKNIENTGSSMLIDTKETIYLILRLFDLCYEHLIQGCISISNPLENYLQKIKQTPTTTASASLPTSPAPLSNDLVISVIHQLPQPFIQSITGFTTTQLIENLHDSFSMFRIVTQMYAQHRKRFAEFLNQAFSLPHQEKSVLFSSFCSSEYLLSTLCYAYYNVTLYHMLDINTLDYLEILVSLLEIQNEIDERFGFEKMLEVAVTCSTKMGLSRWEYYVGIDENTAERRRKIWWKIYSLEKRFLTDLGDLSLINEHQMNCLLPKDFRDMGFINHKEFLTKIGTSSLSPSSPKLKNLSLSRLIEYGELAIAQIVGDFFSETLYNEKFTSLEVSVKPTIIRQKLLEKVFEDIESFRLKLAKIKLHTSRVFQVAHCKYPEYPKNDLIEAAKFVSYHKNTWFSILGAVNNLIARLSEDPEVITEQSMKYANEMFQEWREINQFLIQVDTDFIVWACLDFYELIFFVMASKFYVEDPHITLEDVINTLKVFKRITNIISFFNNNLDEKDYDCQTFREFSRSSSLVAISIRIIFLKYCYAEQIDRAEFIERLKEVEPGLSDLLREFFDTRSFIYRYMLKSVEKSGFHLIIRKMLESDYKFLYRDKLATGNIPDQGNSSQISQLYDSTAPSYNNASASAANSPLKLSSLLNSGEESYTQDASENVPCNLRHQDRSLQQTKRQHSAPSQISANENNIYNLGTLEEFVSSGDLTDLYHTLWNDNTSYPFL
Test: PBM E-score (8-mer binding enrichment) (E-score (-0.5 to 0.5)); higher = stronger / more preferred TF binding; most listed sequences are background and not binding sites
Settings: protein concentration: 200 nM; construct: GST-full length
Procedure, shortened: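 Yeast transcription factors, full-length or as DNA-binding domains, were expressed with a GST tag using PURExpress in vitro transcription/translation. At about 100-200 nM they were applied to universal all-10-mer Agilent arrays, double-stranded by primer extension on fresh or once-stripped slides. Fluorescent anti-GST detected bound protein, and masliner normalised the scans. E-scores for ungapped eight-base words, pooled with reverse complements, came from the Universal PBM Analysis Suite.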

Sequence	PBM E-score
CAGGAAAA	0.0238
CGCGAGAA	0.0823
CCCGCAAA	0.198
AAACAAAA	-0.0866
TACCTAGA	-0.195
AACTAGGG	-0.256
ACAAAAAA	0.0183
CGCCTGCA	-0.0772
ACGGACTG	0.0941
CGAACTAA	0.0447
AGCCCGCT	-0.183
CGACCATA	0.0144
ATACGTCG	-0.0614
TACAAATA	-0.0219
AAAGACAT	-0.211
CGGACCAC	0.35
CATTTGTA	-0.0519
AAAGTTAC	-0.127
AGGGGCAT	-0.117
GGTATTAA	0.141
AGACTGAG	-0.241
GCGATAAC	0.0751
CATGTGAG	-0.134
AAAAACCA	-0.0328
GGAAATCC	0.224

Sequence	PBM E-score
GACGACGA	0.026
GCACAAAA	0.134
ACCCTCTC	-0.0915
CACCATCG	-0.207
CTCGCAAA	-0.131
GTCCCTAA	-0.0658
GACTGTAC	-0.206
AGCAGAGC	-0.158
AGGACGTC	-0.0612
ACAATGCC	0.0544
ATAAAGGG	-0.138
GCCTTGCA	-0.139
CCTCTAAA	-0.248
AGCATCTC	-0.16
CCTGATCA	-0.236
CGTCATCC	0.199
AAAGGATC	-0.172
CCTGGGAA	-0.0887
CCGATTCG	0.25
ACGGTCAA	0.166
AACGATAA	-0.0277
CATTACGA	-0.137
ATAACCCG	0.158
CTGTACGA	-0.215
AGTGTGAG	-0.141

Sequence	PBM E-score
CAAATCCA	-0.0959
CGCCACCG	0.0914
AAGGACTT	-0.162
AGCCTCAT	-0.049
ATCTCATC	-0.00918
CGAACCCA	-0.00188
AAACTCTC	0.0902
CATGGTTA	-0.0564
AGAGCGGA	0.229
AATCACCT	-0.0927
AAGGGTCT	-0.251
CTTGGATA	-0.0622
ACCAGTAG	-0.112
ATTGGCGA	-0.2
GTTTAGGA	-0.241
AAAATACC	0.0769
AAGACCCC	-0.122
TAATGGAA	0.0941
CGAATCAC	0.00478
ACTCACCA	-0.0208
ACGCTGAG	-0.132
CTAAGAGC	-0.156
AACCTCGA	0.0787
GTGTTCTA	0.0677
ACGGCGTA	-0.211

Sequence	PBM E-score
ATTTGAGA	-0.166
AAGGAACC	0.217
AAAAGTAT	0.0448
AATCAACC	0.042
AGAAGTGC	-0.137
AGCAAGCT	-0.247
GACTAAGA	-0.157
AAGACGTA	-0.0491
AAGCGGAT	0.309
ATGAGGTA	-0.18
TCCGCACA	0.259
ATAAAAAA	0.0103
CGTGGCGA	0.0774
GGGTACTA	0.0336
AACGTTAG	-0.0863
CACTCCTA	-0.112
CTAAATTC	0.0203
CGGTTCAC	-0.038
CTTCTAAA	-0.25
TAGACTGA	-0.252
CGATCCAG	-0.0138
GTTCGGCA	0.054
ATCAGTTA	-0.0345
CTTTTCTA	-0.229
ACGATGAT	-0.158

Sequence	PBM E-score
AGGTGGAT	-0.223
AGTAGTGC	0.115
GCCTAAAC	-0.193
ATGGCCGA	0.152
GGCGGCAA	0.168
TCGGGTAA	0.0953
CGGCCTGC	0.07
AGCGCGTG	-0.094
GCGGAGAC	0.336
ATTCCACG	0.155
TGACACCA	-0.193
CGGAAGCC	0.416
GCAACATA	-0.216
AGTGGCGA	-0.0624
GTGTCTGA	-0.0386
GCGAAGAA	-0.00855
GTGTCCTA	0.0921
CCACCTCC	-0.0783
ACTTCCGA	0.355
CGTTCAGC	-0.00419
GAATACGC	0.064
ACCGTCAA	-0.00477
AGGCCCAC	-0.285
AAGCCGAC	0.0308
AACTTGGA	-0.0529

Sequence	PBM E-score
GGGATGAC	0.137
CGTCATAG	-0.0576
GAACATAA	-0.00765
TCACCGCA	-0.163
CCAGCTGG	0.0442
AACCGCGA	0.277
AGGGCGAC	-0.011
CCTGCGAG	-0.0349
GCTAGACA	-0.0898
GGATAGAA	0.0776
CGGCTGTA	0.0401
CTCCTGAA	-0.0454
AACCGAAG	0.0751
AGACGTAA	-0.221
AAGATACC	0.181
GCCCTGCA	-0.0309
CGGTTACA	0.196
CATTACCC	0.112
CGTGATAG	-0.0638
CATCGCCC	-0.00877
CTAAACTA	-0.14
CGCCCAAG	-0.143
TCGAATAA	-0.151
CCAGACAC	-0.104
CTCGGTCC	0.112

Sequence	PBM E-score
AAGGGCGT	-0.102
AGGTAACG	-0.00723
CATTTTCG	0.0924
CACTCTCG	-0.00555
ACAGGCTA	-0.251
TGATTAAA	-0.00687
ACCGAGAT	0.207
ATTTTAAG	-0.146
AAGTAATC	0.0886
CCATGCCA	-0.075
AGTGAAAG	-0.073
CAAGGTCA	-0.294
ATTCTCGC	-0.23
ATGTGTGA	-0.101
ATCTTTCC	0.265
GATACGTA	-0.0921
CCCGTTTC	0.244
CAGGATAG	-0.0459
AGGTGCCC	-0.0255
ATGAACAT	-0.00606
CAAACTAG	-0.168
ATCTTGGC	-0.0804
